Assay results published in patent US10251952B2, “Humanized anti-tau(pS422) antibody brain shuttles and use thereof” (Hoffmann-La Roche Inc., priority 2014, dated 2019).

B1: TfR2: antibody binding the transferrin receptor with reduced affinity (WO 2012/075037); LC SEQ ID NO: 137 (antibody)
heavy: EVQLQQSGPELVKPGASVKMSCKASGYTFTSYVMHWVKQKPGQGLEWIGYVNPYNDDTKYNEKFRGKATLTSDKSSSTAYMELSSLTSEDSAVYYCARSYYYYSMDNWGQGTSVTVSS[letters of human IgG1 constant region omitted]GGGGSGGGGSQVQLVESGGGLVKPGGSLRLSCAASGFTFSDYAMSWIRQAPGKCLEWVSSINIGATYIYYADSVKGRFTISRDNAKNSLYLQMNSLRAEDTAVYYCARPGSPYEYDKAYYSMAYWGQGTTVTVSSGGGGSGGGGSGGGGSDIQMTQSPSSLSASVGDRVTITCRASQDIKNYLNWYQQKPGKAPKLLIYYSSTLLSGVPSRFSGSGSGTDFTLTISSLQPEDFATYYCQQSITLPPTFGCGTKVEIK
light: QIVLTQSPAIMSASPGEKVTVTCSASSSIRYMHWYQQKPGTSPKRWIYDTSELASGVPARFSGSGSGTSYSLTINSMEAEDAATYYCHQRSSYPFTFGGGTKLEIKRTVAAPSVFIFPPSDEQLKSGTASVVCLLNNFYPREAKVQWKVDNALQSGNSQESVTEQDSKDSTYSLSSTLTLSKADYEKHKVYACEVTHQGLSSPVTKSFNRGEC
modifications: HC anti-TfR2 antibody conjugated to scFv anti- digoxigenin antibody fragment; LC anti-TfR2 antibody
B2: TfR2-Dig: bispecific shuttle module: anti-TfR2 antibody with scFv anti-digoxigenin; SEQ ID NO: 137 and 138 (protein)
light: B1 light
heavy: B1 heavy
modifications: LC anti-TfR2 antibody; HC anti-TfR2 antibody conjugated to scFv anti- digoxigenin antibody fragment
B3: TfR2-Bio: bispecific shuttle module: anti-TfR2 antibody with scFv anti-biotin; SEQ ID NO: 137 and 139 (protein)
light: B1 light
heavy: MGWSCIILFLVATATGVHSEVQLQQSGPELVKPGASVKMSCKASGYTFTSYVMHWVKQKPGQGLEWIGYVNPYNDDTKYNEKFRGKATLTSDKSSSTAYMELSSLTSEDSAVYYCARSYYYYSMDNWGQGTSVTVSS[letters of human IgG1 constant region omitted]GGGGSGGGGSDIQMTQSPSSLSASVGDRVTITCRASGNIHNYLSWYQQKPGKVPKLLIYSAKTLADGVPSRFSGSGSGTDFTLTISSLQPEDVATYYCQHFWSSIYTFGCGTKLEIKRGGGGSGGGGSGGGGSGGGGSQVQLVQSGAEVKKPGSSVKVSCKSSGFNNKDTFFQWVRQAPGQCLEWMGRIDPANGFTKYAQKFQGRVTITADTSTSTAYMELSSLRSEDTAVYYCARWDTYGAAWFAYWGQGTLVTVSS
modifications: LC anti-TfR2 antibody; HC anti-TfR2 antibody conjugated to scFv anti- biotin antibody fragment

Key:
transferrin receptor = transferrin receptor (Homo sapiens, UniProt P02786); details: see WO 2012/075037; cited from earlier work
Sequence of transferrin receptor (P02786 whole entry): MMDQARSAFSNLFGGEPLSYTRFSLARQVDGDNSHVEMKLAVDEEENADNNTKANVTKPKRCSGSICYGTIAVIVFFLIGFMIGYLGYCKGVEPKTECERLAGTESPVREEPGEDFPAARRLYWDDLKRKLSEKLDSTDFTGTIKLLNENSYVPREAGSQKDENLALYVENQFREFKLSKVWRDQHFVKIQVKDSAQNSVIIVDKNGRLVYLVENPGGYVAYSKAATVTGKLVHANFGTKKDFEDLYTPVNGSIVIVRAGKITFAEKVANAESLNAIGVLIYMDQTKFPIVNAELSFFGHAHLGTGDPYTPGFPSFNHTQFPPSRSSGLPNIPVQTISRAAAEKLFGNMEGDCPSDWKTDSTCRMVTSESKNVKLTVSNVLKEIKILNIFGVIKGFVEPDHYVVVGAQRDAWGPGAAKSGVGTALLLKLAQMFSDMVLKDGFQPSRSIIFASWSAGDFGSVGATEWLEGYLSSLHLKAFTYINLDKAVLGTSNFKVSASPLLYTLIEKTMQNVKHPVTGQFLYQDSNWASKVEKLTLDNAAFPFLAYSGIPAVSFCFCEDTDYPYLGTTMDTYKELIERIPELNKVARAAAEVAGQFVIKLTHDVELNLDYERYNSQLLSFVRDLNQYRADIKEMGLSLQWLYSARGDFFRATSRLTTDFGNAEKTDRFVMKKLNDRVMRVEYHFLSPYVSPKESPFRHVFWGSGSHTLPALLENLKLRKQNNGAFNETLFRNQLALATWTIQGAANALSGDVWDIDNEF

hCMEC/D3 cells = assay: transwell cell binding and release of shuttle modules, IgG ELISA; type: cell-based; details: for binding to the cells: 1 hour at 37 °C apically; for release to apical or basolateral compartments: over time after washing
Source text: We used brain endothelial cells (hCMEC/D3) to investigate cell binding and transcytosis of the shuttle modules as reported herein. Previous studies (Crepin et al., 2010; Lesley et al., 1989, WO 2012/075037, WO 2014/033074) reported that valency and affinity of TfR binding antibodies influence efficacy of binding to, transcytosis though, and release from endothelial cells of the blood brain barrier. To investigate cell binding and transcytosis in hCMEC/D3, hCMEC/D3 cells cultured on filter inserts were incubated apically with the bispecific antibody or parent antibody (without hapten-binding scFvs as controls) for 1 hour at 37° C. Cell monolayers were washed at room temperature in serum-free medium apically (400 μl) and basolaterally (1600 μl) three times for 3-5 minutes each. All wash volumes were collected to monitor efficiency of removal of the unbound ligand or antibody. Pre-warmed medium was added to the apical chamber and the filters transferred to a fresh 12 well plate (blocked overnight with PBS containing 1% BSA) containing 1600 μl pre-warmed medium. At this point, cells were lysed in 500 μl RIPA buffer (Sigma, Munich, Germany, #R0278) in order to determine specific uptakes. The remaining filters were incubated at 37° C. and samples collected at various time points to determine apical and/or basolateral release. The content of antibody in the samples was quantified using a highly sensitive IgG ELISA.

Molecule	affinity to the transferrin receptor (transferrin receptor)	binding to the cells (hCMEC/D3 cells)	release to apical or basolateral compartments (hCMEC/D3 cells)
B1	reduced affinity	efficiently bound to the cells	subsequently released over time to apical or basolateral compartments
B2		efficiently bound to the cells	released to apical or basolateral compartments to the same degree as the parent antibody
B3		efficiently bound to the cells	released to apical or basolateral compartments to the same degree as the parent antibody
